# Data published in paper PMC6212790.
# The list shows a part of the results. At the low end of the ranking the order means little.
# Biological target: T1, GST-Rok (full length) (UniProt O34857)
# T1 sequence: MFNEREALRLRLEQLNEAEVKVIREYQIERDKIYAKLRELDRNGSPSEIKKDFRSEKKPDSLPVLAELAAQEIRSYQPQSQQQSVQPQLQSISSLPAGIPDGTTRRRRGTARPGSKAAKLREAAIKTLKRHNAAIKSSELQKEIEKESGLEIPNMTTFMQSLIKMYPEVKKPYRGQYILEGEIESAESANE
# Assay: protein binding microarray;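 further: rank score from −0.5 (least bound) to 0.5 (best bound)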
# Conditions: Rok is a gene silencer of Bacillus subtilis; high values mean tight binding; most listed sequences are background and not binding sites; double strand, one strand shown
row,Sequence,binding signal
1,GGTACGTA,0.224 E-score
2,CTGCGCTA,-0.143 E-score
3,GGGCTCCA,-0.23 E-score
4,CTGGTTTA,-0.0493 E-score
5,ATGTTCCA,0.00947 E-score
6,CGTCGATA,0.124 E-score
7,GATAGATA,0.368 E-score
8,AAATCGGA,-0.0407 E-score
9,AAAAACGA,-0.00031 E-score
10,GAGAAATA,0.305 E-score
11,CGCGGTGC,-0.315 E-score
12,ATATCACA,0.176 E-score
13,ACAGGTCT,-0.119 E-score
14,AGTTTGAG,-0.0375 E-score
15,ACTCACAA,-0.0278 E-score
16,CCCATCAC,-0.169 E-score
17,AATGCTTC,0.0347 E-score
18,CAAAAGTA,0.258 E-score
19,CCGAGTTA,0.206 E-score
20,GAGTTGGC,-0.158 E-score
21,ACGCTAAC,0.115 E-score
22,AATGACCT,-0.129 E-score
23,ACGTCGAT,0.142 E-score
24,AGTGTAGA,0.138 E-score
25,AGGTACTC,-0.0642 E-score

row,Sequence,binding signal
1,GGTGATCA,-0.319 E-score
2,AAGGATCA,-0.129 E-score
3,CCTTCCTC,-0.365 E-score
4,CCGGCCGC,-0.308 E-score
5,ATATCAGG,0.078 E-score
6,GACAAGGC,-0.155 E-score
7,GCGTATCA,0.0845 E-score
8,GCGCATCC,-0.273 E-score
9,GAATTGGA,0.104 E-score
10,AAGTTTCC,-0.0805 E-score
11,ATCCCTCG,-0.216 E-score
12,CATTAGCG,0.118 E-score
13,AAAATTAC,0.248 E-score
14,CACCTAGC,-0.131 E-score
15,AAAGGGAG,-0.363 E-score
16,CCATTTCC,-0.131 E-score
17,CGACGTTA,0.102 E-score
18,ATTAATTA,0.279 E-score
19,GTCGGGCA,-0.219 E-score
20,CATGCTGG,-0.145 E-score
21,AAATGGCG,-0.0887 E-score
22,GGCACACC,-0.279 E-score
23,ACCCGTTC,-0.078 E-score
24,CAGGAGCA,-0.255 E-score
25,CGTTGCAA,0.134 E-score

row,Sequence,binding signal
1,CTCGTTTA,0.0412 E-score
2,ATATATCA,0.398 E-score
3,ACACGTGT,0.102 E-score
4,GGCCAGAC,-0.3 E-score
5,ATATCATA,0.247 E-score
6,ACGCGGGC,-0.128 E-score
7,AACCCCAT,-0.3 E-score
8,CGTGGTAA,-0.0887 E-score
9,AGCCTTAC,-0.0245 E-score
10,GCTTGTTA,-0.00887 E-score
11,ACTTCTAT,0.274 E-score
12,GAGCTCTA,-0.0356 E-score
13,CAATAGAA,0.231 E-score
14,AGCGGGGC,-0.344 E-score
15,GATCAAAA,0.077 E-score
16,AACAAGAC,-0.0903 E-score
17,AGTAGCAG,0.0322 E-score
18,CTCATACC,0.132 E-score
19,CACGCCCA,-0.24 E-score
20,AAAATCTC,0.141 E-score
21,CGATGATC,-0.0545 E-score
22,CCATTCTC,-0.103 E-score
23,GCTGGTCA,-0.343 E-score
24,GCTTCGAC,-0.0139 E-score
25,CTCGAAGA,-0.0166 E-score

row,Sequence,binding signal
1,CCCTCAAA,-0.31 E-score
2,ACGCTCAT,-0.273 E-score
3,CGCCCCAG,-0.363 E-score
4,ACGCCCCG,-0.396 E-score
5,CCTGTACC,0.0338 E-score
6,CTGCCTTA,-0.0496 E-score
7,CCGAGGTC,-0.243 E-score
8,GCCATCCA,-0.168 E-score
9,CCCGCACA,-0.286 E-score
10,GATCGAAA,-0.0281 E-score
11,CTCTCCAA,-0.126 E-score
12,AGTATCGC,0.0166 E-score
13,AACATGAC,0.206 E-score
14,AACCGCGA,-0.0117 E-score
15,AGCTCCTG,-0.261 E-score
16,AATGAGTC,-0.114 E-score
17,AAGCAAGA,-0.0912 E-score
18,ATGAACGC,-0.108 E-score
19,ACACGGAG,-0.123 E-score
20,GTGCGGCA,-0.271 E-score
21,CACAGATG,-0.0303 E-score
22,CATTCGTA,0.0195 E-score
23,GGGGACGA,-0.214 E-score
24,ATTCTTAC,0.159 E-score
25,CTTACGAA,0.0513 E-score

row,Sequence,binding signal
1,AATAATCA,0.187 E-score
2,TCTCACCA,-0.0107 E-score
3,CCAGGGGA,-0.274 E-score
4,ATATCAAA,0.195 E-score
5,CGCAACCC,-0.133 E-score
6,GGTAGGAC,0.0568 E-score
7,TAGCAAAA,0.163 E-score
8,AACAGTTG,0.0822 E-score
9,AAACTCCA,-0.0432 E-score
10,ATGTCAGA,-0.087 E-score
11,ACAAAACA,0.116 E-score
12,GAACAGAC,0.0035 E-score
13,AACGTCGG,-0.223 E-score
14,CGACCGCG,-0.0803 E-score
15,CAACTGGA,-0.143 E-score
16,GCGAGCGA,-0.149 E-score
17,TCGTAAGA,0.0433 E-score
18,ATAAGCAG,0.145 E-score
19,CAAGACCG,-0.311 E-score
20,AACTGAGG,-0.0271 E-score
21,CTAGTATA,0.409 E-score
22,ATGGCCAC,-0.249 E-score
23,TTAGGAAA,-0.0886 E-score
24,AATGTCAG,-0.155 E-score
25,AGAGATTC,-0.104 E-score

row,Sequence,binding signal
1,CCAAGGCC,-0.305 E-score
2,CCTCCGCG,-0.0896 E-score
3,AGTACTAA,0.357 E-score
4,ACGGTGCC,-0.36 E-score
5,CATTCCTC,-0.0046 E-score
6,AACTCATT,0.071 E-score
7,AACAATAG,0.301 E-score
8,AATCGTTC,-0.0165 E-score
9,AACTTCAG,0.116 E-score
10,ATTCTAAG,0.21 E-score
11,AAACGTTT,0.123 E-score
12,GATCTCAA,-0.162 E-score
13,GCTCATCC,-0.252 E-score
14,CCTCTTCA,-0.248 E-score
15,CTAGATGA,0.0637 E-score
16,CACCGCCC,-0.262 E-score
17,CCCTCCGG,-0.419 E-score
18,ATCCTGCA,-0.0452 E-score
19,CAGACGCC,-0.308 E-score
20,GTCACCTA,-0.122 E-score
21,AGCGGTCA,-0.0745 E-score
22,CTATATGA,0.197 E-score
23,AGTAACTG,0.193 E-score
24,TCCAATAA,-0.124 E-score
25,ACTAGTTC,0.329 E-score

row,Sequence,binding signal
1,AGGGATTC,-0.163 E-score
2,CAATCTAC,0.365 E-score
3,ACGGGTCC,-0.267 E-score
4,CCTTGCCC,-0.325 E-score
5,AATCCGAT,0.0172 E-score
6,TGCCTCCA,-0.144 E-score
7,ATTGACCG,0.161 E-score
8,ATTAGAAG,0.186 E-score
9,AAAAACGT,0.0725 E-score
10,AACGGGGG,-0.379 E-score
11,GTCCGCAA,-0.0703 E-score
12,AACGGTGA,0.141 E-score
13,ATCCTGAG,-0.0601 E-score
14,CAATCCGC,-0.103 E-score
15,CACCCCAC,-0.265 E-score
16,GGTCAAGA,-0.141 E-score
17,GGGTAACC,-0.186 E-score
18,GGCTGGTA,0.217 E-score
19,CAAGGCGC,-0.272 E-score
20,TAAGTTCA,0.0904 E-score
21,GGTAGACC,-0.0745 E-score
22,GCTCAGAC,-0.192 E-score
